Laboratory results as given in the supplement of paper PMC3724861.
The other results are listed elsewhere or left out.

tested on: T1, Caupolican (Caup) homeodomain DNA-binding domain; experiment: PBM E-score (8-mer, recovered from the published 9-mer minima) (E-score (dimensionless, -0.5 to 0.5)); Drosophila protein; higher = stronger relative binding preference, active = 0.31 or more
T1 sequence: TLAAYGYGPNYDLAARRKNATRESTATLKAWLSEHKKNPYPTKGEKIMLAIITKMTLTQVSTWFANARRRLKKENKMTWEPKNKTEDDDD
Protocol: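 Protein binding microarray (PBM): in vitro transcribed/translated Caupolican (Caup) homeodomain DNA-binding domain (residues 214-303) applied at 100 nM to a universal 8-mer PBM array (Agilent AMADID 015681). The 8-mer enrichment score (E-score, range -0.5 to 0.5) was computed, and each 9-mer score is the minimum E-score of its two constituent 8-mers. The E-score is the same for a 9-mer and its reverse complement; 0.31 is the stated binding threshold.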

PBM E-score, ≥ 0.168:
AACAGGGA

PBM E-score, ≥ 0.0524:
AGCTAGAT

PBM E-score, ≥ 0.145:
TACTACGA

PBM E-score, ≥ 0.0291:
TACCGGTA

PBM E-score, ≥ -0.0018:
ACGCAGGA

PBM E-score, ≥ 0.102:
CGAATGCA

PBM E-score, inactive:
CATAAGCG -0.057
ACCAGTTC -0.0567
CGAATAGA 0.0132
CCTTGGCG -0.248
GCACTCGA -0.0474
TCTCCAAA -0.00938
CGCTATCC -0.0633
AGGTCTAC 0.00555
GTATATTA 0.3
ACTCATTC 0.0831
AAGTGCTG 0.0544
TGATAGAA 0.109
AATGTTGA 0.17
GATTCTTA 0.0296
AAAGGCTT -0.0526
CCCCTTAG -0.208
ACTAGTCG 0.0716
CGATTGCA 0.0296
ACTCTAAG -0.0822
ATTCGTGC 0.0245
AATTCTGG 0.00497
CATCGAAG -0.0314
GATTCGTA 0.061
AACAACCC 0.247
CTGTCCTA 0.0467
ATCGGGAC -0.0269
CGTCTCCA -0.141
ACAAATAC 0.24
CAGCACCG -0.134
AGGAGCTA -0.0695
AGTCCAGA -0.0265
CGGAGATA -0.0704
ATCCCGTA 0.0864
AAGGGATC -0.0319
GACTGCAC -0.0366
ACGACTTA -0.0113
GGTCACAC -0.0544
CCGAGTAA 0.0722
CTGAAGAC -0.0545
CTACCCTA -0.102
TCCTCTAA -0.0475
TAGGGTGA -0.0507
CCAGACAA 0.0491
TAACCCGA 0.00428
GGCTCGTA 0.0794
AACCCTAC -0.00118
ATGGACCC -0.0688
ATTATACG 0.049
ACGGCCTC -0.236
ACTTGCTG 0.0302
TCCGCCAA -0.188
CTCATTAC 0.139
GGCATGCA 0.0214
AGGAGCAC -0.0862
CATGTGTA 0.308
AGGCCAAG -0.144
AATAAACG 0.142
AGATATTC 0.0274
ACATCTTG 0.262
CCCACCCC -0.155
AGCCTCTA -0.143
CAGAGTGC -0.102
AATGTAAG 0.214
GATAATAC 0.154
GCTTTAAA -0.0478
CCGCGTCG -0.0739
AAGAGGGG -0.187
CCGACGCA -0.128
AACCGGAA -0.0406
TGGGGTAA -0.0531
AATGGGCT -0.0639
GCGCGGCC -0.302
CATGCGCA 0.00662
ACGCCCTG -0.0756
CAACACAA 0.241
AGCGCTGC -0.119
ACCCAATA 0.0314
AGTCGAAC 0.0823
AGCGATCG -0.00992
CAATCGCC -0.029
AATTCAAT 0.119
ATCAGCAC 0.0108
ACGAAATC 0.067
GATTTCAC 0.101
GCCGCCAA -0.218
GGGCGTCA -0.174
CCCTCACC -0.153
CGCAAATA 0.0646
CGGCATGC -0.0407
AGAATGCA 0.05
GCAGACAC 0.033
ATCAAATG 0.0866
CCGGAATA -0.0473
GTTAAGCA 0.103
GTTAGCTA -0.0329
GCGGGGAC -0.138
GTGGTTAA 0.0838
AGGTATAA 0.0486
CGTCGTGC 0.0266
TGCCTACA 0.104
ACTAGGGG -0.223
GCCATACA 0.119
GATGATCA 0.0545
ACTAATCG 0.0239
CGCGCTAG -0.142
GAGCACGA 0.0517
TACTTCCA 0.0598
ATCCACAC -0.0296
CGTCGGTC -0.111
AAGTGTCG 0.116
TAGGTTCA -0.0122
CCCCTTGA -0.156
ATAGGAGA 0.0365
GGCCGTAA -0.148
ATGTGACC 0.0381
ATGAGAGA -0.0278
AACCAAGT 0.0437
CTGAGTCA -0.0457
AGACGATA 0.0762
AATGCGGA -0.0519
GGGCTGTA -0.0303
TCTGCCAA -0.0468
GGCCTTAA -0.0972
AAGCAGGA 0.00695
CCATATGG -0.073
CGACTGGA -0.158
GGTCCCAA -0.114
AAGACTTA 0.0824
AACCGAAA 0.0343
AGTCTGCC -0.152
AGACCTGC -0.07
CATACCGA 0.0416
CCCCCAGC -0.44
AATCATCT 0.101
AAGGCCCA -0.231
AGATCGTG 0.0439
CACGCATG 0.0739
CCTGGTCA -0.0753
ATATGCTC 0.116
ATACGCAT 0.11
TTCTGCAA 0.0212
AAGATAAG 0.142
ACCTAGTA 0.145
ACCTATCA 0.0881
CTATACGA 0.0334
CACGGCGG -0.173
GTCTGTAA 0.1
TCACTGGA -0.047
GAACGATC -0.00792
CTACCCGC -0.151
CCTCCCGA -0.263
CGCCTCCA -0.165
ATCACTGC -0.0201
ACAGTTCA 0.0978
CATTCTGA -0.0227
GGATGGAC -0.0198
GCGCTCAA -0.132
CACCCTAA -0.0584
ACCTACAA 0.171
GAAATTCC -0.0846
ATGGTAAG -0.0526
CTCGACTC -0.0783
CCCATTGC -0.105
GCGGACGC -0.263
CAAACATC 0.23
AAATAGTT 0.136
AACGCGCC -0.214
TATCAGGA 0.0345
ACAGGTAC 0.161
CGATGCAC -0.015
CAACCGCG -0.0698
AGTCCAGG -0.0987
GCAGGCAA -0.0468
CTATCTAA 0.0584
AGGGTTAC -0.0616
CGGCCCCG -0.323
AAATCAAT 0.171
CCTTATTC -0.0214
ACACCGCC 0.0415
ACAACGTA 0.255
AGAACGGG -0.126
CTGAAAAA -0.0197
CCCGGAGG -0.327
CACTCTAG -0.093
GATCACAC 0.145
AGGGTTTC -0.0131
GCTGTCAC 0.112
CGGTTCCA -0.127
CTGCCAAC -0.0934
ACTTAGGC -0.134
ACCCCGTC -0.239
TAAATGAA 0.139
GCTCTGAC -0.121
CCGGAACA 0.137
ACCACATG 0.212
GGCCCAAC -0.161
AAAGTCAA 0.0526
ACGGCCAG -0.163
AACCATGC 0.0352
AGTTAAAC 0.122
GTATGGGA -0.0439
AATGCGGC -0.0861
CGTGATAC 0.113
GGATCTCA -0.137
GAACCCAA -0.0323
ATCAGATG 0.131
GCAACTCC -0.14
CCTCCCTC -0.156
ATTTGACG 0.0903
AAACCACG -0.0278
CCCGAGAC -0.0815

PBM E-score, active:
GTTTACAA 0.343
ATACATAT 0.344
ATAACATG 0.424
GAACATGC 0.354
AATGTAAA 0.323
AACAAGAT 0.334
